# From the supplement of paper PMC8728848
# Some of the results follow.
# B1: DCIR (Homo sapiens), Q9UMR7 (protein)
# chain: MTSEITYAEVRFKNEFKSSGINTASSAASKERTAPHKSNTGFPKLLCASLLIFFLLLAISFFIAFVIFFQKYSQLLEKKTTKELVHTTLECVKKNMPVEETAWSCCPKNWKSFSSNCYFISTESASWQDSEKDCARMEAHLLVINTQEEQDFIFQNLQEESAYFVGLSDPEGQRHWQWVDQTPYNESSTFWHPREPSDPNERCVVLNFRKSPKRWGWNDVNCLGPQRSVCEMMKIHL
# Columns and labels:
# Assay in all cases: glycan array binding signal (z-score within array); higher = stronger binding
# Settings in all cases: glycan notation: IUPAC condensed, linker removed
# [1] = target: Neu5Ac(a2-3)Gal(b1-4)GlcNAc(b1-3)Gal(b1-4)GlcNAc
# Procedure, shortened: (§1)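 The binding signal is a Z-score computed within each array. Data were drawn from 3228 arrays in the Consortium for Functional Glycomics database, restricted to those with a known protein sequence. Scores were averaged over arrays of the same protein sequence at different concentrations or buffers, and over linkers, and negative values can be taken as non-binding.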
# [2] = target: Neu5Ac(a2-3)Gal(b1-4)GlcNAc(b1-3)Gal(b1-4)GlcNAc(b1-3)Gal(b1-4)GlcNAc
# Procedure, shortened: as §1
# [3] = target: Neu5Ac(a2-3)Gal(b1-4)GlcNAc(b1-3)Gal(b1-4)[Fuc(a1-3)]GlcNAc
# Procedure, shortened: as §1
# [4] = target: Neu5Ac(a2-3)Gal(b1-4)GlcNAc6S
# Procedure, shortened: as §1
# [5] = target: Neu5Ac(a2-3)Gal(b1-4)[Fuc(a1-3)]GlcNAc
# Procedure, shortened: as §1
# [6] = target: Neu5Ac(a2-3)Gal(b1-4)[Fuc(a1-3)]GlcNAc(b1-3)Gal
# Procedure, shortened: as §1
# [7] = target: Neu5Ac(a2-3)Gal(b1-4)[Fuc(a1-3)]GlcNAc(b1-3)Gal(b1-4)GlcNAc
# Procedure, shortened: as §1
# [8] = target: Neu5Ac(a2-3)Gal(b1-4)[Fuc(a1-3)]GlcNAc(b1-3)Gal(b1-4)[Fuc(a1-3)]GlcNAc(b1-3)Gal(b1-4)[Fuc(a1-3)]GlcNAc
# Procedure, shortened: as §1
# [9] = target: Neu5Ac(a2-3)Gal(b1-4)[Fuc(a1-3)]GlcNAc6S
# Procedure, shortened: as §1
# [10] = target: Neu5Ac(a2-3)Gal6S(b1-4)GlcNAc
# Procedure, shortened: as §1
# [11] = target: Neu5Ac(a2-3)Gal6S(b1-4)[Fuc(a1-3)]GlcNAc
# Procedure, shortened: as §1
# Neu5Ac(a2-3)GalNAc = target: Neu5Ac(a2-3)GalNAc
# Procedure, shortened: as §1
# [12] = target: Neu5Ac(a2-3)GalNAc(b1-4)GlcNAc
# Procedure, shortened: as §1
# [13] = target: Neu5Ac(a2-3)[GalNAc(b1-4)]Gal(b1-4)Glc
# Procedure, shortened: as §1
# [14] = target: Neu5Ac(a2-3)[GalNAc(b1-4)]Gal(b1-4)GlcNAc
# Procedure, shortened: as §1
# [15] = target: Neu5Ac(a2-3)[Neu5Ac(a2-6)]GalNAc
# Procedure, shortened: as §1
# Neu5Ac(a2-6)Gal = target: Neu5Ac(a2-6)Gal
# Procedure, shortened: as §1
# Neu5Ac(a2-6)Gal(b1-4)Glc = target: Neu5Ac(a2-6)Gal(b1-4)Glc
# Procedure, shortened: as §1
# [16] = target: Neu5Ac(a2-6)Gal(b1-4)GlcNAc
# Procedure, shortened: as §1
# [17] = target: Neu5Ac(a2-6)Gal(b1-4)GlcNAc(b1-2)Man(a1-3)[Neu5Ac(a2-6)Gal(b1-4)GlcNAc(b1-2)Man(a1-6)]Man(b1-4)GlcNAc(b1-4)GlcNAc
# Procedure, shortened: as §1
# [18] = target: Neu5Ac(a2-6)Gal(b1-4)GlcNAc(b1-3)Gal(b1-4)GlcNAc
# Procedure, shortened: as §1
# [19] = target: Neu5Ac(a2-6)Gal(b1-4)GlcNAc(b1-3)Gal(b1-4)[Fuc(a1-3)]GlcNAc(b1-3)Gal(b1-4)[Fuc(a1-3)]GlcNAc
# Procedure, shortened: as §1
# [20] = target: Neu5Ac(a2-6)Gal(b1-4)GlcNAc6S
# Procedure, shortened: as §1
# Neu5Ac(a2-6)GalNAc = target: Neu5Ac(a2-6)GalNAc
# Procedure, shortened: as §1
# [21] = target: Neu5Ac(a2-6)GalNAc(b1-4)GlcNAc
# Procedure, shortened: as §1
# Neu5Ac(a2-8)Neu5Ac = target: Neu5Ac(a2-8)Neu5Ac
# Procedure, shortened: as §1
# [22] = target: Neu5Ac(a2-8)Neu5Ac(a2-3)Gal(b1-4)Glc
# Procedure, shortened: as §1
# [23] = target: Neu5Ac(a2-8)Neu5Ac(a2-3)[GalNAc(b1-4)]Gal(b1-4)Glc
# Procedure, shortened: as §1
# [24] = target: Neu5Ac(a2-8)Neu5Ac(a2-8)Neu5Ac
# Procedure, shortened: as §1
# [25] = target: Neu5Ac(a2-8)Neu5Ac(a2-8)Neu5Ac(a2-3)Gal(b1-4)Glc
# Procedure, shortened: as §1
# [26] = target: Neu5Ac(a2-8)Neu5Ac(a2-8)Neu5Ac(a2-3)[GalNAc(b1-4)]Gal(b1-4)Glc
# Procedure, shortened: as §1
# [27] = target: Neu5Ac(a2-8)Neu5Ac(a2-8)Neu5Ac(a2-8)Neu5Ac(a2-3)[GalNAc(b1-4)]Gal(b1-4)Glc
# Procedure, shortened: as §1
# Neu5Ac(b1-6)GalNAc = target: Neu5Ac(b1-6)GalNAc
# Procedure, shortened: as §1
# [28] = target: Neu5Ac(b2-6)Gal(b1-4)GlcNAc
# Procedure, shortened: as §1
# [29] = target: Neu5Ac9Ac(a2-6)Gal(b1-4)GlcNAc
# Procedure, shortened: as §1
# [30] = target: Neu5Gc(a2-3)Gal(b1-3)GlcNAc
# Procedure, shortened: as §1
# [31] = target: Neu5Gc(a2-3)Gal(b1-3)[Fuc(a1-4)]GlcNAc
# Procedure, shortened: as §1
# Neu5Gc(a2-3)Gal(b1-4)Glc = target: Neu5Gc(a2-3)Gal(b1-4)Glc
# Procedure, shortened: as §1
# [32] = target: Neu5Gc(a2-3)Gal(b1-4)GlcNAc
# Procedure, shortened: as §1
# [33] = target: Neu5Gc(a2-3)Gal(b1-4)[Fuc(a1-3)]GlcNAc
# Procedure, shortened: as §1
# [34] = target: Neu5Gc(a2-6)Gal(b1-4)GlcNAc
# Procedure, shortened: as §1
# Neu5Gc(a2-6)GalNAc = target: Neu5Gc(a2-6)GalNAc
# Procedure, shortened: as §1
binder,measurement,setting,value
B1,glycan array binding signal (z-score),[1],-0.119
same,glycan array binding signal (z-score),[2],0.196
same,glycan array binding signal (z-score),[3],-0.435
same,glycan array binding signal (z-score),[4],1.32
same,glycan array binding signal (z-score),[5],-0.173
same,glycan array binding signal (z-score),[6],-0.071
same,glycan array binding signal (z-score),[7],-0.392
same,glycan array binding signal (z-score),[8],-0.372
same,glycan array binding signal (z-score),[9],-0.213
same,glycan array binding signal (z-score),[10],-0.055
same,glycan array binding signal (z-score),[11],-0.15
same,glycan array binding signal (z-score),Neu5Ac(a2-3)GalNAc,-0.163
same,glycan array binding signal (z-score),[12],-0.382
same,glycan array binding signal (z-score),[13],-0.433
same,glycan array binding signal (z-score),[14],-0.064
same,glycan array binding signal (z-score),[15],-0.304
same,glycan array binding signal (z-score),Neu5Ac(a2-6)Gal,-0.039
same,glycan array binding signal (z-score),Neu5Ac(a2-6)Gal(b1-4)Glc,-0.16
same,glycan array binding signal (z-score),[16],-0.217
same,glycan array binding signal (z-score),[17],-0.178
same,glycan array binding signal (z-score),[18],-0.415
same,glycan array binding signal (z-score),[19],-0.304
same,glycan array binding signal (z-score),[20],0.011
same,glycan array binding signal (z-score),Neu5Ac(a2-6)GalNAc,-0.245
same,glycan array binding signal (z-score),[21],0.018
same,glycan array binding signal (z-score),Neu5Ac(a2-8)Neu5Ac,-0.501
same,glycan array binding signal (z-score),[22],-0.187
same,glycan array binding signal (z-score),[23],-0.373
same,glycan array binding signal (z-score),[24],-0.001
same,glycan array binding signal (z-score),[25],-0.304
same,glycan array binding signal (z-score),[26],-0.052
same,glycan array binding signal (z-score),[27],-0.266
same,glycan array binding signal (z-score),Neu5Ac(b1-6)GalNAc,-0.079
same,glycan array binding signal (z-score),[28],-0.27
same,glycan array binding signal (z-score),[29],-0.355
same,glycan array binding signal (z-score),[30],-0.279
same,glycan array binding signal (z-score),[31],0.047
same,glycan array binding signal (z-score),Neu5Gc(a2-3)Gal(b1-4)Glc,-0.322
same,glycan array binding signal (z-score),[32],-0.294
same,glycan array binding signal (z-score),[33],0.251
same,glycan array binding signal (z-score),[34],0.115
same,glycan array binding signal (z-score),Neu5Gc(a2-6)GalNAc,-0.266
